Test results from the supplement of paper PMC4967469.
A lower IC50 marks a more sensitive line; a limit (>, <) means that the fit lies beyond the doses tested. AUC, from the same fit, is the share of area under the viability curve across the 256-fold dose range: 1 means no effect, lower means more sensitive. For some assays here: Where the top dose is marked as inferred, it is not printed in the source and was worked back from the curve model. For some assays here: An entry number marks a drug with two screens in the source, which often give different values.

Key:
Assay in all cases: Viability of human cancer cell lines after 72 h of drug (GDSC screen)
[1] = compound: C=CC(=O)Nc1cc(-n2c(=O)ccc3cnc4ccc(-c5cn[nH]c5)cc4c32)ccc1C [QL-X-138]; conditions: top dose 10.24 µM; top dose inferred
Procedure: (§1)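 Human cancer cell lines in 384-well plates, medium with 10% serum, drug for 72 h over a 256-fold dose range (nine 2-fold or five 4-fold steps up to the top dose). Adherent lines were fixed and stained with the nucleic acid dye Syto60, suspension lines read with resazurin; signal relative to control wells, capped at 0 and 100%. One two-parameter sigmoid per drug and line, fitted in a mixed model over all curves with the slope shared within a line.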

[2] = compound: COc1cc(N2CCC(O)CC2)ccc1Nc1cc(Nc2ccccc2S(=O)(=O)C(C)C)c2cc[nH]c2n1 [MPS-1-IN-1]; conditions: top dose 20 µM; top dose inferred
Procedure: as §1

[3] = compound: Cc1ccc(F)c(NC(=O)Nc2ccc(-c3cccc4[nH]nc(N)c34)cc2)c1 [ABT-869]; conditions: top dose 1.024 µM; top dose inferred
Procedure: as §1

[4] = compound: C/C=C(/C)C(=O)O[C@H]1C(C)=C2[C@H]([C@@H]1OC(=O)CCCCCCC)[C@@](C)(OC(C)=O)C[C@H](OC(=O)CCC)[C@@]1(O)[C@H]2OC(=O)[C@@]1(C)O [Thapsigargin]; conditions: top dose 0.512 µM; top dose inferred
Procedure: as §1

[5] = compound: C[C@]1(c2nc3c(C(N)=O)cccc3[nH]2)CCCN1 [ABT-888]; conditions: top dose 5 µM; top dose inferred
Procedure: as §1

[6] = compound: Cc1cnc(-c2cnc(NCCNc3ccc(C#N)cn3)nc2-c2ccc(Cl)cc2Cl)[nH]1 [CHIR-99021]
Procedure: as §1

[7] = compound: Nc1ccn([C@@H]2O[C@H](CO)[C@@H](O)[C@@H]2O)c(=O)n1 [Cytarabine]; conditions: top dose 2 µM
Procedure: as §1

[8] = compound: COc1nc(C)cnc1NS(=O)(=O)c1cccnc1-c1ccc(-c2nnco2)cc1 [Zibotentan]; conditions: top dose 20 µM; top dose inferred
Procedure: as §1

[9] = compound: CCn1c(-c2nonc2N)nc2cnc(Oc3cccc(NC(=O)c4ccc(OCCN5CCOCC5)cc4)c3)cc21 [GSK269962A]; conditions: top dose inferred
Procedure: as §1

[10] = compound: COc1cc2ncnc(-n3nc(-c4ccccn4)nc3N)c2cc1OC [CP466722]; conditions: top dose 16 µM; top dose inferred
Procedure: as §1

[11] = compound: COc1cc(O)c2c(c1)/C=C/C[C@H](O)[C@H](O)C(=O)/C=C\C[C@H](C)OC2=O [(5Z)-7-Oxozeaenol]; conditions: top dose 10 µM; top dose inferred
Procedure: as §1

[12] = compound: O=c1cc(-c2cccc3c2Sc2ccccc2S3)oc(N2CCOCC2)c1 [KU-55933]; conditions: top dose 10 µM
Procedure: as §1

[13] = top dose 2.56 µM, screen: GDSC drug entry 154
[14] = top dose 5 µM, screen: GDSC drug entry 1192
[15] = top dose 10 µM, screen: GDSC drug entry 1241, top dose inferred
[16] = top dose 2.5 µM, screen: GDSC drug entry 127

Row | Cell Line | AUC [1] | IC50 [1] | AUC [2] | IC50 [2] | AUC [3] | IC50 [3] | AUC [4] | IC50 [4] | AUC [5] | IC50 [5] | AUC [6, 13] | IC50 [6, 13] | AUC [7] | IC50 [7] | AUC [8] | IC50 [8] | AUC [9, 14] | IC50 [9, 14] | AUC [10] | IC50 [10] | AUC [11] | IC50 [11] | AUC [6, 15] | IC50 [6, 15] | AUC [12] | IC50 [12] | AUC [9, 16] | IC50 [9, 16]
1 | A2058 (melanoma, adherent) | 0.745 | 2940 nM | 0.954 | > 20 µM | 0.99 | > 1020 nM | 0.161 | 3.46 nM | 0.964 | > 5 µM | 0.98 | > 2.56 µM | 0.57 | 190 nM | 0.99 | > 20 µM | 0.879 | 4.17 µM | 0.898 | > 16 µM |  |  |  |  |  |  |  | 
2 | AN3-CA (endometrium, adherent) | 0.653 | 1780 nM | 0.974 | > 20 µM | 0.839 | 795 nM | 0.169 | 2.78 nM | 0.969 | > 5 µM | 0.963 | > 2.56 µM | 0.845 | 1650 nM | 0.983 | > 20 µM | 0.682 | 1.06 µM | 0.86 | 15.6 µM | 0.468 | 506 nM | 0.96 | > 10 µM |  |  |  | 
3 | BT-549 (breast, adherent) |  |  |  |  |  |  |  |  | 0.978 | > 5 µM |  |  | 0.811 | 1630 nM |  |  | 0.539 | 0.417 µM |  |  | 0.623 | 1560 nM | 0.902 | > 10 µM |  |  |  | 
4 | DMS-53 (small cell lung carcinoma, adherent) | 0.988 | > 10200 nM | 0.988 | > 20 µM | 0.982 | > 1020 nM | 0.664 | 94.6 nM | 0.988 | > 5 µM | 0.988 | > 2.56 µM | 0.915 | > 2000 nM | 0.987 | > 20 µM | 0.984 | > 5 µM | 0.975 | > 16 µM | 0.795 | 5040 nM | 0.982 | > 10 µM |  |  |  | 
5 | Daoy (medulloblastoma, adherent) | 0.409 | 370 nM | 0.95 | > 20 µM | 0.983 | > 1020 nM | 0.23 | 5.8 nM | 0.936 | > 5 µM | 0.987 | > 2.56 µM | 0.757 | 629 nM | 0.987 | > 20 µM | 0.914 | > 5 µM | 0.797 | 6.78 µM | 0.536 | 777 nM | 0.878 | 8.48 µM |  |  |  | 
6 | EFM-19 (breast, adherent) | 0.753 | 5170 nM | 0.942 | > 20 µM | 0.955 | > 1020 nM |  |  | 0.977 | > 5 µM | 0.891 | > 2.56 µM | 0.8 | 1640 nM | 0.953 | > 20 µM | 0.903 | > 5 µM | 0.741 | 7.15 µM | 0.794 | 7610 nM | 0.974 | > 10 µM |  |  |  | 
7 | EPLC-272H (lung squamous cell carcinoma, adherent) | 0.566 | 991 nM | 0.793 | 10.5 µM | 0.955 | > 1020 nM | 0.549 | 44.3 nM | 0.983 | > 5 µM |  |  | 0.784 | 967 nM | 0.976 | > 20 µM | 0.863 | > 5 µM | 0.602 | 1.97 µM | 0.322 | 185 nM |  |  |  |  |  | 
8 | H2722 (mesothelioma, adherent) | 0.869 | > 10200 nM | 0.973 | > 20 µM | 0.974 | > 1020 nM | 0.477 | 27.3 nM | 0.984 | > 5 µM | 0.865 | > 2.56 µM | 0.686 | 462 nM | 0.979 | > 20 µM | 0.696 | 1.24 µM | 0.871 | > 16 µM | 0.676 | 2140 nM | 0.838 | 8.7 µM |  |  |  | 
9 | HCC70 (breast, adherent) | 0.792 | 4530 nM | 0.974 | > 20 µM | 0.984 | > 1020 nM | 0.456 | 24.3 nM | 0.965 | > 5 µM | 0.988 | > 2.56 µM | 0.94 | > 2000 nM | 0.964 | > 20 µM | 0.987 | > 5 µM | 0.852 | 12 µM | 0.803 | 4840 nM | 0.981 | > 10 µM |  |  |  | 
10 | HCC1395 (breast, adherent) | 0.926 | > 10200 nM | 0.979 | > 20 µM | 0.984 | > 1020 nM | 0.279 | 6.54 nM |  |  | 0.893 | > 2.56 µM | 0.854 | > 2000 nM | 0.982 | > 20 µM | 0.892 | > 5 µM | 0.96 | > 16 µM | 0.827 | 7840 nM | 0.918 | > 10 µM | 0.962 | > 10 µM |  | 
11 | HCC1937 (breast, adherent) | 0.639 | 1660 nM | 0.942 | > 20 µM | 0.979 | > 1020 nM | 0.075 | < 2 nM |  |  | 0.984 | > 2.56 µM | 0.811 | 1270 nM | 0.983 | > 20 µM | 0.971 | > 5 µM | 0.848 | 14.8 µM | 0.823 | 7120 nM | 0.925 | > 10 µM | 0.978 | > 10 µM |  | 
12 | HCC2998 (large intestine, adherent) | 0.882 | > 10200 nM | 0.947 | > 20 µM | 0.988 | > 1020 nM | 0.134 | 2.36 nM | 0.988 | > 5 µM | 0.97 | > 2.56 µM | 0.708 | 472 nM | 0.988 | > 20 µM | 0.987 | > 5 µM | 0.927 | > 16 µM | 0.526 | 736 nM | 0.983 | > 10 µM |  |  | 0.967 | > 2.5 µM
